Experimental data reported in the supplement of paper PMC12217912.
The other results are listed elsewhere or left out. The full chains were built here from the parent and the listed change. Values near 0.05 are background.

B1: TEV protease; numbered along this chain (parent)
chain: MGESLFKGPRDYNPISSSICHLTNESDGHTTSLYGIGFGPFIITNKHLFRRNNGTLVVQSLHGVFKVKDTTTLQQHLVDGRDMIIIRMPKDFPPFPQKLKFREPQREERICLVTTNFQTKSMSSMVSDTSCTFPSGDGIFWKHWIQTKDGQCGSPLVSTRDGFIVGIHSASNFTNTNNYFTSVPKNFMELLTNQEAQQWVSGWRLNADSVLWGGHKVFMVKPEEPFQPVKEATQL

Variants of: B1
Assay: raw area under fraction-flipped curve 0-4 h after induction (AUC4h, not background-subtracted), DNA-recorder readout of cleavage of the substrate (dimensionless); higher = more cleavage of the substrate by the protease variant
Conditions: temperature: 34 °C; time window: 0-4 h after rhamnose induction
Method: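 In vivo DNA recorder in E. coli TOP10(DE3) ΔrhaA at 34 °C. Each TEVp single-site mutant (parent TEVp 0) is paired with a single-site variant of the 7-mer TEVs (canonical ENLYFQ|S). The substrate sits between flexible linkers in a Bxb1-sfGFP-TEVs-SsrA fusion, so cleavage stabilises Bxb1 and speeds flipping of a recombination array, read by NGS. The value is the raw area under the fraction-flipped curve over 0-4 h after rhamnose induction (AUC4h), with ≥20 reads per time point. It is not background-subtracted; inactive controls average about 0.047.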
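Also: Bxb1 expression induced with 0.2% (w/v) L-rhamnose at OD600 near 0.5, cultures sampled hourly, flipped fraction per protease–substrate barcode pair counted by paired-end Illumina sequencing.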

| Variant | area with substrate ENLYFAS | area with substrate ENLYFCS | area with substrate ENLYFDS | area with substrate ENLYFFS | area with substrate ENLYFGS | area with substrate ENLYFHS | area with substrate ENLYFIS | area with substrate ENLYFKS | area with substrate ENLYFLS | area with substrate ENLYFMS | area with substrate ENLYFNS | area with substrate ENLYFPS | area with substrate ENLYFSS | area with substrate ENLYFVS | area with substrate ENLYFYS | area with substrate ENLYFES | area with substrate ENLYFRS | area with substrate ENLYFTS | area with substrate ENLYFWS |
| --- | --- | --- | --- | --- | --- | --- | --- | --- | --- | --- | --- | --- | --- | --- | --- | --- | --- | --- | --- |
| MGESLFKGPRDYNPHSSSICHLTNESDGHTTSLYGIGFGPFIITNKHLFRRNNGTLVVQSLHGVFKVKDTTTLQQHLVDGRDMIIIRMPKDFPPFPQKLKFREPQREERICLVTTNFQTKSMSSMVSDTSCTFPSGDGIFWKHWIQTKDGQCGSPLVSTRDGFIVGIHSASNFTNTNNYFTSVPKNFMELLTNQEAQQWVSGWRLNADSVLWGGHKVFMVKPEEPFQPVKEATQL [I15H] | 0.0873 | 0.0592 | 0.0677 | 0.067 | 0.0627 | 0.0652 | 0.0545 | 0.0563 | 0.0582 | 0.0641 | 0.0545 | 0.054 | 0.0568 | 0.0411 | 0.0571 | – | – | – | – |
| MDESLFKGPRDYNPISSSICHLTNESDGHTTSLYGIGFGPFIITNKHLFRRNNGTLVVQSLHGVFKVKDTTTLQQHLVDGRDMIIIRMPKDFPPFPQKLKFREPQREERICLVTTNFQTKSMSSMVSDTSCTFPSGDGIFWKHWIQTKDGQCGSPLVSTRDGFIVGIHSASNFTNTNNYFTSVPKNFMELLTNQEAQQWVSGWRLNADSVLWGGHKVFMVKPEEPFQPVKEATQL [G2D] | 0.11 | 0.0542 | – | 0.0633 | 0.0606 | – | 0.06 | – | 0.0559 | 0.0503 | 0.0639 | 0.0611 | 0.0559 | – | 0.0545 | 0.0705 | 0.0595 | 0.0556 | 0.0616 |
| MGESLFKGKRDYNPISSSICHLTNESDGHTTSLYGIGFGPFIITNKHLFRRNNGTLVVQSLHGVFKVKDTTTLQQHLVDGRDMIIIRMPKDFPPFPQKLKFREPQREERICLVTTNFQTKSMSSMVSDTSCTFPSGDGIFWKHWIQTKDGQCGSPLVSTRDGFIVGIHSASNFTNTNNYFTSVPKNFMELLTNQEAQQWVSGWRLNADSVLWGGHKVFMVKPEEPFQPVKEATQL [P9K] | 0.087 | 0.0537 | 0.055 | 0.0709 | 0.0567 | 0.0517 | 0.061 | 0.0628 | 0.0501 | – | 0.0634 | 0.0587 | 0.067 | – | 0.0773 | 0.0524 | 0.0713 | 0.0518 | – |
| MGESLFKGYRDYNPISSSICHLTNESDGHTTSLYGIGFGPFIITNKHLFRRNNGTLVVQSLHGVFKVKDTTTLQQHLVDGRDMIIIRMPKDFPPFPQKLKFREPQREERICLVTTNFQTKSMSSMVSDTSCTFPSGDGIFWKHWIQTKDGQCGSPLVSTRDGFIVGIHSASNFTNTNNYFTSVPKNFMELLTNQEAQQWVSGWRLNADSVLWGGHKVFMVKPEEPFQPVKEATQL [P9Y] | 0.049 | – | – | – | – | 0.0746 | 0.0628 | 0.0526 | 0.0489 | – | – | 0.0558 | – | – | – | – | – | 0.0796 | 0.05 |
| MGESLFKGPRDYNGISSSICHLTNESDGHTTSLYGIGFGPFIITNKHLFRRNNGTLVVQSLHGVFKVKDTTTLQQHLVDGRDMIIIRMPKDFPPFPQKLKFREPQREERICLVTTNFQTKSMSSMVSDTSCTFPSGDGIFWKHWIQTKDGQCGSPLVSTRDGFIVGIHSASNFTNTNNYFTSVPKNFMELLTNQEAQQWVSGWRLNADSVLWGGHKVFMVKPEEPFQPVKEATQL [P14G] | 0.0508 | 0.051 | 0.0584 | 0.0646 | 0.0539 | – | 0.0666 | 0.0686 | – | 0.0737 | 0.0402 | 0.061 | – | – | 0.0917 | – | 0.0548 | 0.0592 | 0.0638 |
| MGESLFKGPRDYNNISSSICHLTNESDGHTTSLYGIGFGPFIITNKHLFRRNNGTLVVQSLHGVFKVKDTTTLQQHLVDGRDMIIIRMPKDFPPFPQKLKFREPQREERICLVTTNFQTKSMSSMVSDTSCTFPSGDGIFWKHWIQTKDGQCGSPLVSTRDGFIVGIHSASNFTNTNNYFTSVPKNFMELLTNQEAQQWVSGWRLNADSVLWGGHKVFMVKPEEPFQPVKEATQL [P14N] | 0.0561 | – | 0.064 | 0.0731 | 0.0554 | 0.0683 | 0.063 | 0.0624 | 0.076 | 0.0641 | – | 0.063 | 0.068 | 0.0608 | 0.0457 | 0.0769 | 0.0407 | 0.0747 | 0.057 |
| MGESLFKGPHDYNPISSSICHLTNESDGHTTSLYGIGFGPFIITNKHLFRRNNGTLVVQSLHGVFKVKDTTTLQQHLVDGRDMIIIRMPKDFPPFPQKLKFREPQREERICLVTTNFQTKSMSSMVSDTSCTFPSGDGIFWKHWIQTKDGQCGSPLVSTRDGFIVGIHSASNFTNTNNYFTSVPKNFMELLTNQEAQQWVSGWRLNADSVLWGGHKVFMVKPEEPFQPVKEATQL [R10H] | 0.0511 | 0.0643 | – | 0.109 | 0.0501 | 0.0548 | 0.0608 | – | 0.0566 | 0.0625 | 0.0634 | 0.0614 | 0.0762 | – | 0.0451 | 0.057 | – | 0.0722 | 0.061 |
| MGESLFKGPQDYNPISSSICHLTNESDGHTTSLYGIGFGPFIITNKHLFRRNNGTLVVQSLHGVFKVKDTTTLQQHLVDGRDMIIIRMPKDFPPFPQKLKFREPQREERICLVTTNFQTKSMSSMVSDTSCTFPSGDGIFWKHWIQTKDGQCGSPLVSTRDGFIVGIHSASNFTNTNNYFTSVPKNFMELLTNQEAQQWVSGWRLNADSVLWGGHKVFMVKPEEPFQPVKEATQL [R10Q] | 0.0474 | 0.0659 | 0.0642 | 0.0658 | 0.0651 | – | 0.0595 | 0.0533 | 0.0574 | 0.0812 | 0.058 | 0.0636 | 0.0419 | – | 0.0613 | 0.0678 | 0.0512 | 0.0569 | 0.0762 |
| MGESLFKGPRDGNPISSSICHLTNESDGHTTSLYGIGFGPFIITNKHLFRRNNGTLVVQSLHGVFKVKDTTTLQQHLVDGRDMIIIRMPKDFPPFPQKLKFREPQREERICLVTTNFQTKSMSSMVSDTSCTFPSGDGIFWKHWIQTKDGQCGSPLVSTRDGFIVGIHSASNFTNTNNYFTSVPKNFMELLTNQEAQQWVSGWRLNADSVLWGGHKVFMVKPEEPFQPVKEATQL [Y12G] | 0.0617 | 0.049 | 0.0481 | 0.0779 | 0.0469 | – | 0.0577 | 0.0595 | 0.0537 | 0.0637 | 0.0699 | 0.0657 | – | – | – | 0.0642 | 0.0574 | 0.0521 | 0.0649 |
